Read counts are not given, so values of variants with three or more changes are uncertain.

The chains are these.
B1: OR4K15 (parent)
chain: GUUAACGGUCAUAGGCCAUGGAAACUAGGAGCACCAUUUCGCUGCCAGUGAAGAAAUGAACAAAGAAAAUCUGGGCCAGGCAGGCAUCAAAAGAAAUAGUCUUGCGCUCAACCAGAAAGUCUGUAAUCAUUUUAAGGGUA

The series covers variants of B1. As to the kind of experiment: self-cleavage, relative activity (ratio to wild type); higher = more cleavage; in vitro, sequencing; the parent is a self-cleaving ribozyme.
GUUAACGGUCAUAGGCCGUGGAAGCUAGGAGCACCGUUUCGCUGCCAGUGAAGAAAUGAACAGAGAAAAUCUGGGCCAGGCAGGCAUCAAAAGAAAUAGUCUUGCGCUCAACCAGAAAGUCUGUAAUCAUUUUAAGGGUA: the self-cleavage worked out at 0.79. As to GUUAACGGUCAUAGGCCGUGGAACCUAGGAGCACCAUUUCGCUGCCAGUGAAGAAAUGAACAAAGAAAAUCUGGGCCUGGCAGGCAUCAAAAGAAAUAGUCUUGCGCUCAACCAGAAAGUCUGUAAUCGUUUUAAGGGUA, the self-cleavage was 0.08. The value for GUUAACGGUCAUAGGCCCUGGAAACUAGGAGCACCAUUUCGCUGCCAGUGAAGAAAUGAACAAAGAAAAUCUGGGCCAGGCAGGCACCAAAAGAAAUAGUCUUGCGCUCGACCAGAAAGUCUGUAAUCAUUUUAAGGGUA was 0.04.

Regarding GUUAACGGUCAUAGGCCCUGGAAACUAGGAGCACCAUUUCGCUGCCAGUGAAGAAAUGAACAAAGAAAAUCCGGGCCAGGCAGGCAUCAAAAGAAAUAGUCUUGCGCUCAACCAGAAAGUCUGUAAUCAUCUUAAGGGUA, the self-cleavage worked out at 0.12.

With GUUAACGGUCAUAGGCCGUGGAAGCUAGGAGCACCAUUUCGCUGCCAGUGAAGAAAUGAACAAAGAAAAUCUGGGCCAGGCAGGCAUCAAAAGAAAUAGUCUUGCGCUCAACCAGAAGGUCUGUAAUCAUUUUAAGGGUA, the self-cleavage amounted to 0.79. The value for GUUAACGGUCAUAGGCUAUGGAAACUAGGAGCACCAUUUCGCUGCCAGUGAAGAAACGAACAAAGAGAAUCUGGGCCGGGCAGGCAUCAAAAGAAAUAGUCUUGCGCUCAACCAGAAAGUCUGUAAUCAUUUUAAGGGUA was 0.33; that for GUUAACGGUCAUAGGCCGUGGAAGCUAGGAGCACCAUCUCGCUGCCAGUGAAGAAAUGAACAAAGAAAAUCUGGGCCAGGCAGGCAUCAAAAGAAAUAGUCUUGCGCUCAACCGGAAAGUCUGUAAUCAUUUUAAGGGUA was 0.9; that for GUUAACGGUCAUAGGCCGUGGGAACUAGGAGCACCAUUUCGCAGCCAGUGAAGAAAUGAACAAAGAAAAUCUGGGCCAGGCAGGCAUCAAAAGAAAUAGUCCUGCGCUCAACCAGAAAGUCUGUAAUCAUUUUAAGGGUA was 0.91. To GUUAACGGUCAUAGGCCCUGGAAACUAGGAGCACCACUUCGCUGCCAGUGAAGAAAUGAACAAAGAAAAUCUGGGCCAGGCAGGCACCAAGAGAAAUAGUCUUGCGCUCAACCAGAAAGUCUGUAAUCAUUUUAAGGGUA belongs 0.21; to GUUAACGGUCAUAGGCCGUGGAAACUGGGAGCACCAUUUCGCUGCCAGUGAAGGAAUGAACAAAGAAAAUCUGGGCCAGGCAGGCAUCAAAAGAAAUAGUCUCGCGCUCAACCAGAAAGUCUGCAUUCAUUCUAAGGGUA, 1.2. To GUUAACGGUCAUAGGCCCUGGAAACUAGGAGCACCAUUUCGCUGCCAGUGAAGAAAUGAACAAAGGAUAUCUGGGCCAGGCGGGCAUCAAAAGAAAUAGUCUUGCGCUCAACCAGAAAGUCUGUAAUCAUUUUAAGGGUA belongs 0.73. For the variant GUUAACGGUCAUAGGCCCUGGAAACUAGGAGCACCAUUUCGCUGCCAGUGAAGAAAUGAACAAAGAAAAUCUGGGCCAGGCAGGCGUCAAAAGAAAUAGUCUUGCGCUCAACCAGAAAGUCUGUAUUCAUUUUAAGGGUA, the self-cleavage stood at 1.22.

As to GUUAACGGUCAUAGGCCCUGGAAACUAGGAGCACCAUUUCGCUGCCAGUGAAGAAAUGAACAAAGGAAAUCUGGGCCAGGCAGGCAUCAAAAGAAAUAGCCUUGCGCUCAACCAGAAAGUCUGUAAUCAUUUUAAGGGUA, the self-cleavage came to 1.7. The value for GUUAACGGUCAUAGGCCCUGGAACCUAGGAGCACCAUUUCGCUGCCAGUGAAGUAAUGAGCAAAGAAAAUCUGGGCCAGGCAGGCAUCAAAAGAAAUAGUCUAGCGCUCAACCAGAAAGUCUGUAAUCAUUUUAAGGGUA was 0.71; that for GUUAACGGUCAUAGGCCCUGGAAACUAGGAGCACCAUUACGCUGCCAGUGAAGAAAUGAACAAAGAAAAUCUGGGCCAGGCAGGCAUCAAAAGUAAUAGUCUUGCGCACAACCAGAAAGUCUGUAAUCACUUUAAGGGUA was 0. To GUUAACGGUCAUAGGCCGUGGGAACUAGGAGCACCAUUUCGCUGCCAGUGAAGAAAUGAACAAAGAAAAUCUGGGCCAGGCAGGCAUCAAAAGAAAUAGUGUUGCGCUCAACCAGAAAGUCUGUAAUCAUUUUAAGAGUA belongs 0.21. For the variant GUUAACGGUCAUAGGCCGUGGAUACUAGGAGCACCAUUUCGCUGCCAGUGAAGAAAUGAACAAAGAAAAUCUGGGCCAGGCAGGCAUCAAGAGAAAUAGUCUUGCGCUCAACCAGAGAGUCUGUAAUCAUUUUAAGGGUA, the self-cleavage stood at 1.84. Regarding GUUAACGGUCAUAGGCCCUGGAAACUAGGAGCACCAUUUCGCUGCCAGUGAAGAAAUGAACGAAGAAAAUCUGGGCCAGGCAGGCGUCAAAAGAAAUAGUCUUGCGCUCAACCAGAAAGUCUGUAAUCAUUUUAAGGGUA, the self-cleavage amounted to 1.18. To GUUAACGGUCAUAGGCCCUGGAAACUAGGAGCACCAUUUCGCUGCCAGUGAAGAAAUGAACAAAGAAAAUCUGUGCCAGGCAGGCAUCAAAAGAAAUAGUCCUGCGCUCAACCUGAAAGUCUGUAAUCAUUUUAAGGGUA belongs 0. To GUUAACGGUCAUAGGCCCUGGAAACUAGGAGCACCAUUUCGCUGCCAGUGAAGAAAUGGACAAAGAAAAUCUGGGCCAGGCAGACAUCAAAAGAAAUAGUCUUGCGCACAACCAGAAAGCCUGUAAUCAUUUUAAGGGUA belongs 0.04.

Source of the values: the RNAGym collection of RNA variant scans (doi:10.7554/elife.90254).
